Test results taken from ChEMBL document CHEMBL1156829.
Over roughly 5,400 compounds, “IFI” has its median near 2; the highest 2% begin near 22. This is one part of the list.

Experiment: NOVARTIS: Inhibition Frequency Index (IFI) - the number of HTS assays where a compound showed > 50% inhibition/induction, expressed as a percentage of the number of assays in which the compound was tested.
Type: functional
Work on `COc1ccc(CCNC(=O)CC(=O)NN=Cc2ccc(Br)cc2)cc1OC` yielded an IFI of 0%. In the case of `CC(C)(C)c1cc(Br)cc(C=NNc2ccc([N+](=O)[O-])cc2)c1O`, the IFI is reported as 0%. Compound `Cc1ccc(NC(=O)c2cc(C(=O)c3cc(Cl)ccc3O)cn(-c3ccc(C)c(C)c3)c2=O)cc1C` has an IFI of 6.25%. Compound `Cc1ccn2c(NC(C)(C)CC(C)(C)C)c(-c3ccccc3OS(=O)(=O)CC34CCC(CC3=O)C4(C)C)nc2c1` (stereo not drawn) has an IFI of 3.77%. In the case of `CCOC(=O)c1cc(-c2ccc(C)cc2)n(CCC(=O)Nc2cccc(C(F)(F)F)c2)c1C`, the IFI is reported as 2.7%. For `Clc1ccccc1-c1nc([P+](c2ccccc2)(c2ccccc2)c2ccccc2)c(N2CCOCC2)o1`, the IFI was 25.9%. Work on `CC[n+]1c(/C=C2\Sc3oc4ccccc4c3N2C)ccc2cc(C)ccc21` yielded an IFI of 26.1%. `COc1ccc(-c2c[n+](CC(=O)O[C@H]3C[C@H](C)CC[C@@H]3C(C)C)c3n2CCCCC3)cc1` showed an IFI of 21.9%. Work on `Cc1ccc(-c2nn(CC(=O)Nc3ccc(OC(F)(F)F)cc3)c(=O)c3ccccc23)cc1S(=O)(=O)N1CCCCC1` yielded an IFI of 2.35%. `CCOC(=O)c1c(CSc2ccccc2)oc2cc(CN(C)C)c(O)c(Cl)c12` showed an IFI of 4.62%. `O=[N+]([O-])c1cccc(C(Nc2nccs2)c2ccc3cccnc3c2O)c1` (stereo not drawn) gave an IFI of 7.69%. Work on `CC1=C(C(=O)OC2CCCCC2)C(c2ccc(F)cc2)C2=C(CC(c3ccccc3)CC2=O)N1` (stereo not drawn) yielded an IFI of 5.88%. For `CC(=O)CSc1nnc(-c2ccncc2)n1C`, the IFI was 1.51%. In the case of `CCOc1ccc(/C=C(/C#N)c2nc3ccccc3[nH]2)cc1OC`, the IFI is reported as 8.42%. `O=C(Nc1cc(Cl)cc(Cl)c1)Nc1ccccc1C(=O)NCC1CC1` showed an IFI of 3.39%. With `Cc1ccc(-n2c(C(C)N(Cc3ccco3)C(=O)C3CCC3)nc3cc(Cl)ccc3c2=O)cc1` (stereo not drawn) the IFI was 3.09%. Work on `CCCCOc1ccc(C(=O)Nc2c3c(nn2-c2ccc(C)cc2C)CSC3)cc1` yielded an IFI of 0%. For `COc1ccc(Nc2cc(C)nc(NCc3ccccc3)n2)cc1`, the IFI was 4%. `CN1CCN(N/C=C2/C(=O)N(c3nc4ccccc4s3)N=C2c2ccccc2)CC1` gave an IFI of 0%. For `COc1ccc(C2CC(=O)C3=C(C2)NC(C)=C(C(=O)OC(C)C)C3c2ccccc2C)cc1OC` (stereo not drawn), the IFI was 4.76%. In the case of `COc1ccc2c(c1OC)C(=O)N(c1ncc(C)s1)C2`, the IFI is reported as 0%. Compound `CCC(C)(C)c1ccc(Oc2ccc(NC(=O)c3ccc([N+](=O)[O-])o3)cc2)cc1` has an IFI of 15.2%. In the case of `CC(=O)N1CCOC1C(C)(C)C/C=C(\C)CCC=C(C)C` (stereo not drawn), the IFI is reported as 1.47%. For `CN(C)c1ccc(/C=C2\SC(=Nc3ccc(F)cc3)NC2=O)cc1`, the IFI was 0%. `Oc1ncnc2c1C(c1ccccc1)c1c(O)ncnc1O2` gave an IFI of 0%. For `CC[n+]1c(C=C2C=CN(c3ccc(Cl)cc3)C=C2)ccc2ccccc21`, the IFI was 15.4%. For `Cc1ccn2c(NC(C)(C)CC(C)(C)C)c(-c3ccccc3OC(=O)C3C[C@H]3c3ccccc3)nc2c1` (stereo partly drawn), the IFI was 3.74%. With `N#Cc1ccc(NC(=O)NC2CC3CCCC(C2)N3CCc2ccccc2)cc1` (stereo not drawn) the IFI was 3.8%. For `COc1ccc(O)c(C=NNc2nc3ccccc3[nH]2)c1`, the IFI was 8.33%. With `COCCNCCN1CCN(c2ccc(C)cc2)C[C@@H]1c1ccccc1` the IFI was 1.24%. Work on `c1cc2cc3ccc(OCCN4CCCCC4)cc3nc2cc1OCCN1CCCCC1` yielded an IFI of 2.68%. `O=C(Nc1ccccc1O)c1ccc(C(=O)N(C2CCCCC2)C2CCCCC2)cc1` gave an IFI of 0%. Work on `O=C(Nc1ccc(NC(=O)c2ccco2)cc1Cl)c1ccccc1` yielded an IFI of 0%. For `OCCNc1nc(Nc2ccc(Br)cc2)nc2ccccc12`, the IFI was 0%. In the case of `CCCCN(CCCC)S(=O)(=O)c1nc(C)c(Cl)c(C)c1C#N`, the IFI is reported as 0%. Work on `Cc1cccc(N2C(=O)C3C(C2=O)C2(c4ccccc4)C(=O)C3(c3ccccc3)C(c3ccccc3)=C2c2ccccc2)c1` (stereo not drawn) yielded an IFI of 0%. `C=CCn1c2cc(C)sc2c2cnn(CC(=O)N3CC(C)CC(C)C3)c(=O)c21` (stereo not drawn) showed an IFI of 0%. Compound `CCCCOc1c2ccccc2nc2ccccc12` has an IFI of 0%. In the case of `CCOc1ccc(C2=NC3(CCN(C(C)C)CC3)NC(c3cc(Cl)ccc3O)C2)cc1` (stereo not drawn), the IFI is reported as 3.12%. Work on `CCOc1ccc(Nc2cc(C)nc3c(C)cc(C)cc23)cc1` yielded an IFI of 1.11%. With `CCN(CC)CCNc1ccnc2ccc([N+](=O)[O-])cc12` the IFI was 0%. With `Cc1ccc(-c2cn3ccccc3[n+]2CC(=O)c2ccc(Cl)cc2)cc1[N+](=O)[O-]` the IFI was 0%. In the case of `COc1ccc(OC)c(-c2ccc(O)c(CNC3CCCCCCC3)c2)c1`, the IFI is reported as 1.72%. `Oc1ccccc1Nc1nc(NCc2ccccc2)c2ccccc2n1` showed an IFI of 2.7%. For `Clc1cc(N2CCCCC2)c(Cl)nn1`, the IFI was 0%. `NS(=O)(=O)c1ccc(N/C=C/C(=O)c2ccc(Cl)s2)cc1` showed an IFI of 0%. `Cc1ccc2nc(-c3ccccc3)cc(C(=O)Nc3ccc(Cl)c(Cl)c3)c2c1` gave an IFI of 1.5%. In the case of `CC1CCCCN1CCCN(Cc1c2ccccc2cc2ccccc12)C(=O)c1ccccc1Cl` (stereo not drawn), the IFI is reported as 2.08%. `CN1CCN(c2nc(NCCNc3ccc([N+](=O)[O-])cc3)c3ccccc3n2)CC1` gave an IFI of 19.1%. For `Cc1nc(-c2ccncc2)nc(NCCNc2ccc(C(F)(F)F)cn2)c1Cl`, the IFI was 0%. With `CC1(C)CC(=O)C2=C(C1)NC(=O)CC2c1ccc(C(C)(C)C)cc1` (stereo not drawn) the IFI was 9.09%. For `CCN1CCN(c2cc(C)c(C#N)c3nc4ccccc4n23)CC1`, the IFI was 0%. Work on `COc1ccc([C@]23Oc4cc(OC)cc(OC)c4[C@@]2(O)[C@@H](O)C(C(=O)N(C)C)[C@@H]3c2ccccc2)cc1` (stereo partly drawn) yielded an IFI of 0%. For `COc1ccc(/C=C2\SC(=Nc3ccc(F)cc3)NC2=O)c(OC)c1`, the IFI was 0%. Work on `C[n+]1ccc(C2OC2c2ccccc2)c2ccccc21` (stereo not drawn) yielded an IFI of 0%. `Cc1cc2c(cc1C)N(C(=O)c1ccccc1)C(C)(C)c1ssc(=S)c1-2` gave an IFI of 0%. `CCOC(=O)CSc1nc2c(sc(=S)n2-c2ccc(Cl)c(C)c2)c(=O)n1-c1ccccc1OC` showed an IFI of 0%. For `O=C(Nc1ccc(Cl)cc1)N1CCN(c2ccc3nncn3n2)CC1`, the IFI was 0%. In the case of `CCOc1ccc(CN(CCC(c2ccccc2)c2ccccc2)C(=O)Nc2ccccc2C)cc1`, the IFI is reported as 0.926%. `O=C(Nc1ccc(Cl)cc1Cl)c1ccc(-c2nc(-c3ccccc3Cl)cs2)cc1` showed an IFI of 6.67%. In the case of `COC(=O)C1=C(C)N(c2ccc(N(C)C)cc2)C(C)=C(C(=O)OC)C1c1ccc(Br)cc1`, the IFI is reported as 0%. `COc1ccc2[nH]cc(CCNC(=O)Oc3ccccc3)c2c1` gave an IFI of 0%. Compound `CCOC(=O)Cn1cnc2c(nnn2Cc2ccc(F)cc2)c1=O` has an IFI of 0%.
